Assay [1] concerns the target T1, p115(1–655)–HA–MAO (human) (UniProt O60763).
T1 sequence: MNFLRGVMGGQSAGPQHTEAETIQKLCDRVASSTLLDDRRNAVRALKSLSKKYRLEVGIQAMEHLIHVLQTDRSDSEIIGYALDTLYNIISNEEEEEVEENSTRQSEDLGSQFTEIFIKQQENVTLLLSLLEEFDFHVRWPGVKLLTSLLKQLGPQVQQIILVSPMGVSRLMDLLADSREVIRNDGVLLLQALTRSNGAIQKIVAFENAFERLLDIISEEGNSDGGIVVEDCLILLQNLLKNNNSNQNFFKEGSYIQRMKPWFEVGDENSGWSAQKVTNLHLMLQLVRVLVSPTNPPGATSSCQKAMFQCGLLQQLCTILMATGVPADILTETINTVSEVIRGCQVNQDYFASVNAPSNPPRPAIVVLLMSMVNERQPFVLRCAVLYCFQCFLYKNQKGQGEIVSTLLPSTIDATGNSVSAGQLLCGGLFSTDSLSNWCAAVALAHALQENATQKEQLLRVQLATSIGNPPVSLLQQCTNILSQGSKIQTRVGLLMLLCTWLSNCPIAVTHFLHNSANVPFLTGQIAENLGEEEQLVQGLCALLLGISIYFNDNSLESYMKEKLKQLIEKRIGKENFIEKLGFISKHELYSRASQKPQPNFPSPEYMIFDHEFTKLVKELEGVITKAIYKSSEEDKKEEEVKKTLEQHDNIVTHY
The assay can be described thus: mitochondrial relocation assay (confocal microscopy); one partner anchored on mitochondria in HeLa cells (HA–MAO chimera); relocation of the endogenous or co-expressed partner to mitochondria seen by immunofluorescence or GFP.

Protein sequences, listed by entry. Tags and fused reporters are not part of them. Lines headed by an entry give the natural chain unless they say otherwise; changes in a name come on top. Residues count along the entry.
UniProt O15027: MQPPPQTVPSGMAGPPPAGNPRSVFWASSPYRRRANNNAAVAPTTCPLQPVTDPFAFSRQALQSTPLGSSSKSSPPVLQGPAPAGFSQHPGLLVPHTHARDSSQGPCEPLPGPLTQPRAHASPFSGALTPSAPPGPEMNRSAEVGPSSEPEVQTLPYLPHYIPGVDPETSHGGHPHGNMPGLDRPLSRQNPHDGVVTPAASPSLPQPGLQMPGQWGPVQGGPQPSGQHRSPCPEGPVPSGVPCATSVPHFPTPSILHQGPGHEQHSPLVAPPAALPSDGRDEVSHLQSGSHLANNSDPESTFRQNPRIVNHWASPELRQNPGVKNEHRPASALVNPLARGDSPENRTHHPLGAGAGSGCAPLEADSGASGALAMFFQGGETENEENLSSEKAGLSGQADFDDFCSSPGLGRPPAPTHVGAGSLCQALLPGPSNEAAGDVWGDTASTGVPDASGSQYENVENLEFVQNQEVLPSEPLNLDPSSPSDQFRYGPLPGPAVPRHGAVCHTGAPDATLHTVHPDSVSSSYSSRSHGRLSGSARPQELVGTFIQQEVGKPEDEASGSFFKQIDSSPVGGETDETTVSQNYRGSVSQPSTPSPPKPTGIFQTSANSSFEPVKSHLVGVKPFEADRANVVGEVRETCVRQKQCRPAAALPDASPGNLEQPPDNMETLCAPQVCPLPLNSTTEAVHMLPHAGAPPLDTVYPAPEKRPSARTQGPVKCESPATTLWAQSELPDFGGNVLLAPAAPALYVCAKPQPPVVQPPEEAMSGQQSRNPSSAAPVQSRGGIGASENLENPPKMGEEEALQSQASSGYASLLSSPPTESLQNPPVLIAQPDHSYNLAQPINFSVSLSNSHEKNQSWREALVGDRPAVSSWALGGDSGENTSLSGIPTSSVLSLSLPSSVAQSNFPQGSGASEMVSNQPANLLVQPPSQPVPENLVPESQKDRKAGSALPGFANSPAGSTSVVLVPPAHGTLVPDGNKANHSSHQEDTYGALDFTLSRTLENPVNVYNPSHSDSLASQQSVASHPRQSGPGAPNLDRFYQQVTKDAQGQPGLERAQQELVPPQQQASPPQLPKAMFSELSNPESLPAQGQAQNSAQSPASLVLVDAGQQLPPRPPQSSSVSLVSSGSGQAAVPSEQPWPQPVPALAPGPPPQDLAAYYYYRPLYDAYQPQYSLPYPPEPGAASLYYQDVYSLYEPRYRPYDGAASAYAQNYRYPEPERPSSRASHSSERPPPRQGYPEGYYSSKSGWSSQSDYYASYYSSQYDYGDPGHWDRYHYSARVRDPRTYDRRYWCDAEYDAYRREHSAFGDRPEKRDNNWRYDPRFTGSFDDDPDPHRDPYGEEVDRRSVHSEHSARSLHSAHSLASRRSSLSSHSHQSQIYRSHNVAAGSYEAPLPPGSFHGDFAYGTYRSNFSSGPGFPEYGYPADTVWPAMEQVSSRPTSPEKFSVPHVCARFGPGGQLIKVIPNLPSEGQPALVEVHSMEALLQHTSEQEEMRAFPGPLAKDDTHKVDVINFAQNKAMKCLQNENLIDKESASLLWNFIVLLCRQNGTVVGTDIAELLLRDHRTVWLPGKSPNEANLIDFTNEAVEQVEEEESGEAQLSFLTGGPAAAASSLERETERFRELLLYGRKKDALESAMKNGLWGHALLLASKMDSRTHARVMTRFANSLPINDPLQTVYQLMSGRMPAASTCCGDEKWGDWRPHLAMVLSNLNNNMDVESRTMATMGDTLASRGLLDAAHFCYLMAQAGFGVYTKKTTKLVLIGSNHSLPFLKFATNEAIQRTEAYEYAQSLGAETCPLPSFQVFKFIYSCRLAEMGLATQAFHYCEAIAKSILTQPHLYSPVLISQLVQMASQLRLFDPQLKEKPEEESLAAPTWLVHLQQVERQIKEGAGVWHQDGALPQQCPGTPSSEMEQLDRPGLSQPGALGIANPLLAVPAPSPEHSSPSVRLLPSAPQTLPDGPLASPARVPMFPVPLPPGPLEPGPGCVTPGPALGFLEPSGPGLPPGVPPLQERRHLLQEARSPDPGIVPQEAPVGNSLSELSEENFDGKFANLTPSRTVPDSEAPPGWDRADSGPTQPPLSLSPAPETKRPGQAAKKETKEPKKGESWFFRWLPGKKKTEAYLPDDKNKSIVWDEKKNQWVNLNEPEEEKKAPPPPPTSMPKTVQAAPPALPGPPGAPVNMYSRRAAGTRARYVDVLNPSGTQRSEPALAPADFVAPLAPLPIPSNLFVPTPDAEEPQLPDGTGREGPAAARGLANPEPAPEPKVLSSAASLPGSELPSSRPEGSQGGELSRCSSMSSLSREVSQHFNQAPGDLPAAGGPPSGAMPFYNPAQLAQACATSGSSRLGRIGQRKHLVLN
Sec16A (650–776)–GFP: residues 650-776 of O15027

Assay [2] concerns the target Sec16A (650–776)–GFP (human) (UniProt O15027). As to the kind of experiment: pull-down; direct binding assay: FLAG-tagged protein eluted from anti-FLAG beads (1 M NaCl wash, 3×FLAG peptide) was incubated for 1 h at 4°C with GFP-tagged protein held on GFP-Trap beads after harsh washes (1% SDS; 1 M NaCl, 1% Triton X-100); washes with 300 mM NaCl; immunoblot; both purified. (In western blotting, separated proteins are transferred to a membrane and probed.)

Assay [3] has as its target mitochondrial form of Sec16A (650–776) (human) (UniProt O15027). As to the kind of experiment: mitochondrial relocation assay (confocal microscopy); one partner anchored on mitochondria in HeLa cells (HA–MAO chimera); relocation of the endogenous or co-expressed partner to mitochondria seen by immunofluorescence or GFP.
For assay [4], the target named is Sec16A (650–776)–GFP (human) (UniProt O15027). The assay can be described thus: co-IP; GFP-tagged protein expressed in HEK293T cells, precipitated on GFP-Trap agarose (lysis with 150 mM NaCl, 0.5% Triton X-100; washes with 300 mM NaCl; 4°C); endogenous partner detected by immunoblot.

The results in this text go back to article PMC7619307, “The Golgi vesicle tether p115 can bind directly to the ER exit site organiser Sec16A” (Journal of cell science, 2026).

These are yes or no findings as the source states them, for the method shown. For some of these results: Binding seen in cells or lysates may run through a third protein. Some binding calls cover weakened binding; strength is not graded here. For some of these results: Sequences can lack the tags named with a protein.

Take “GFP–Sec16A (1–1101) (from UniProt O15027 1-1101) (domain or fragment)”: the binding result in assay [1] was “binds”.

For “GFP–Sec16A (1101–1890) (from UniProt O15027 1101-1890) (domain or fragment)”, the binding entry in assay [1] was “no binding”.

On to “GFP–Sec16A (1891–2357) (from UniProt O15027 1891-2357) (domain or fragment)”, for which the binding result in assay [1] is listed as “no binding”.

For “Sec16A (511–1101)–GFP (from UniProt O15027 511-1101) (domain or fragment)”, the binding entry in assay [1] is “binds”.

B1: FLAG-tagged p115 head domain (1–655) with the Q462D mutation (domain or fragment, UniProt O60763 1-655)
chain: MNFLRGVMGGQSAGPQHTEAETIQKLCDRVASSTLLDDRRNAVRALKSLSKKYRLEVGIQAMEHLIHVLQTDRSDSEIIGYALDTLYNIISNEEEEEVEENSTRQSEDLGSQFTEIFIKQQENVTLLLSLLEEFDFHVRWPGVKLLTSLLKQLGPQVQQIILVSPMGVSRLMDLLADSREVIRNDGVLLLQALTRSNGAIQKIVAFENAFERLLDIISEEGNSDGGIVVEDCLILLQNLLKNNNSNQNFFKEGSYIQRMKPWFEVGDENSGWSAQKVTNLHLMLQLVRVLVSPTNPPGATSSCQKAMFQCGLLQQLCTILMATGVPADILTETINTVSEVIRGCQVNQDYFASVNAPSNPPRPAIVVLLMSMVNERQPFVLRCAVLYCFQCFLYKNQKGQGEIVSTLLPSTIDATGNSVSAGQLLCGGLFSTDSLSNWCAAVALAHALQENATQKEQLLRVDLATSIGNPPVSLLQQCTNILSQGSKIQTRVGLLMLLCTWLSNCPIAVTHFLHNSANVPFLTGQIAENLGEEEQLVQGLCALLLGISIYFNDNSLESYMKEKLKQLIEKRIGKENFIEKLGFISKHELYSRASQKPQPNFPSPEYMIFDHEFTKLVKELEGVITKAIYKSSEEDKKEEEVKKTLEQHDNIVTHY
With B1, in assay [2], the binding result is listed as “no binding”.

B2: endogenous p115 (HeLa) (protein, UniProt O60763 1-962)
chain: MNFLRGVMGGQSAGPQHTEAETIQKLCDRVASSTLLDDRRNAVRALKSLSKKYRLEVGIQAMEHLIHVLQTDRSDSEIIGYALDTLYNIISNEEEEEVEENSTRQSEDLGSQFTEIFIKQQENVTLLLSLLEEFDFHVRWPGVKLLTSLLKQLGPQVQQIILVSPMGVSRLMDLLADSREVIRNDGVLLLQALTRSNGAIQKIVAFENAFERLLDIISEEGNSDGGIVVEDCLILLQNLLKNNNSNQNFFKEGSYIQRMKPWFEVGDENSGWSAQKVTNLHLMLQLVRVLVSPTNPPGATSSCQKAMFQCGLLQQLCTILMATGVPADILTETINTVSEVIRGCQVNQDYFASVNAPSNPPRPAIVVLLMSMVNERQPFVLRCAVLYCFQCFLYKNQKGQGEIVSTLLPSTIDATGNSVSAGQLLCGGLFSTDSLSNWCAAVALAHALQENATQKEQLLRVQLATSIGNPPVSLLQQCTNILSQGSKIQTRVGLLMLLCTWLSNCPIAVTHFLHNSANVPFLTGQIAENLGEEEQLVQGLCALLLGISIYFNDNSLESYMKEKLKQLIEKRIGKENFIEKLGFISKHELYSRASQKPQPNFPSPEYMIFDHEFTKLVKELEGVITKAIYKSSEEDKKEEEVKKTLEQHDNIVTHYKNMIREQDLQLEELRQQVSTLKCQNEQLQTAVTQQVSQIQQHKDQYNLLKIQLGKDNQHQGSYSEGAQMNGIQPEEIGRLREEIEELKRNQELLQSQLTEKDSMIENMKSSQTSGTNEQSSAIVSARDSEQVAELKQELATLKSQLNSQSVEITKLQTEKQELLQKTEAFAKSVEVQGETETIIATKTTDVEGRLSALLQETKELKNEIKALSEERTAIKEQLDSSNSTIAILQTEKDKLELEITDSKKEQDDLLVLLADQDQKILSLKNKLKDLGHPVEEEDELESGDQEDEDDESEDPGKDLDHI
With B2, in assay [3], the binding entry is listed as “binds”.

B3: endogenous p115 (HEK293T) (protein, UniProt O60763 1-962)
chain: MNFLRGVMGGQSAGPQHTEAETIQKLCDRVASSTLLDDRRNAVRALKSLSKKYRLEVGIQAMEHLIHVLQTDRSDSEIIGYALDTLYNIISNEEEEEVEENSTRQSEDLGSQFTEIFIKQQENVTLLLSLLEEFDFHVRWPGVKLLTSLLKQLGPQVQQIILVSPMGVSRLMDLLADSREVIRNDGVLLLQALTRSNGAIQKIVAFENAFERLLDIISEEGNSDGGIVVEDCLILLQNLLKNNNSNQNFFKEGSYIQRMKPWFEVGDENSGWSAQKVTNLHLMLQLVRVLVSPTNPPGATSSCQKAMFQCGLLQQLCTILMATGVPADILTETINTVSEVIRGCQVNQDYFASVNAPSNPPRPAIVVLLMSMVNERQPFVLRCAVLYCFQCFLYKNQKGQGEIVSTLLPSTIDATGNSVSAGQLLCGGLFSTDSLSNWCAAVALAHALQENATQKEQLLRVQLATSIGNPPVSLLQQCTNILSQGSKIQTRVGLLMLLCTWLSNCPIAVTHFLHNSANVPFLTGQIAENLGEEEQLVQGLCALLLGISIYFNDNSLESYMKEKLKQLIEKRIGKENFIEKLGFISKHELYSRASQKPQPNFPSPEYMIFDHEFTKLVKELEGVITKAIYKSSEEDKKEEEVKKTLEQHDNIVTHYKNMIREQDLQLEELRQQVSTLKCQNEQLQTAVTQQVSQIQQHKDQYNLLKIQLGKDNQHQGSYSEGAQMNGIQPEEIGRLREEIEELKRNQELLQSQLTEKDSMIENMKSSQTSGTNEQSSAIVSARDSEQVAELKQELATLKSQLNSQSVEITKLQTEKQELLQKTEAFAKSVEVQGETETIIATKTTDVEGRLSALLQETKELKNEIKALSEERTAIKEQLDSSNSTIAILQTEKDKLELEITDSKKEQDDLLVLLADQDQKILSLKNKLKDLGHPVEEEDELESGDQEDEDDESEDPGKDLDHI
As to B3, the binding entry in assay [4] was “binds”.
